# Test results: the supplement of paper PMC8728848
# This is one part of the list.
# B1: B160 (Bifidobacterium sp) (protein)
# chain: MVSHNKRIVAALAAVAAMGIGLAGCGGSDTAGDTKSGSDGGVVNITYMHRLPDSEGMTLVNDIVAKWNKEHPNIQVKATKFDGNAADMIKKLETDVKAGNAPDLAQVGYAEVPEVFTKGLLQDVTDEAAKYKDDFASGPFALMQVDGKTYGLPQDTGPLTYFYNAAEFEKLGITVPKTADELIETAKKTAAQGKYIMTFTPDEAMMMMSGQAGASGPWYKVDGNSWVVNTQTKGSKAVADVYQQLIDNKAALTNPRWDASFDNSIQSGQLIGTVAAAWEAPLFIDSAGGTGAGEWKVTQLGDWFGNGTKTGANGGSGVAVLKGSKHPAEAMEFLDWFNTQVDDLVSQGLVVAATTADAKTPQKWSDYFSGQDVMAEFKTANDNMGDFTYMPGFSAVGAAMKQTAAKAADGSAKVSDVFDTAQKTSVDTLKNLGLSVKE
# Experiments:
# Experiment in all cases: glycan array binding signal (z-score within array); higher = stronger binding
# Conditions in all cases: glycan notation: IUPAC condensed, linker removed
# [1] = molecular target: Gal6S(b1-4)Glc6S
# In short: (§1)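 The Consortium for Functional Glycomics database supplied 3228 glycan arrays, of which those lacking an available protein sequence were dropped. The binding signal, a within-array Z-score, was averaged across arrays of the same protein sequence and across linkers. Negative scores can be read as non-binding.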
# [2] = molecular target: Gal6S(b1-4)GlcNAc
# In short: as §1
# [3] = molecular target: Gal6S(b1-4)GlcNAc6S
# In short: as §1
# [4] = molecular target: GalNAc(a1-3)Gal
# In short: as §1
# [5] = molecular target: GalNAc(a1-3)GalNAc
# In short: as §1
# [6] = molecular target: GalNAc(a1-3)GalNAc(b1-3)Gal(a1-4)Gal(b1-4)Glc
# In short: as §1
# [7] = molecular target: GalNAc(a1-3)GalNAc(b1-3)Gal(a1-4)Gal(b1-4)GlcNAc
# In short: as §1
# [8] = molecular target: GalNAc(b1-3)Gal
# In short: as §1
# [9] = molecular target: GalNAc(b1-3)Gal(a1-4)Gal(b1-4)GlcNAc
# In short: as §1
# [10] = molecular target: GalNAc(b1-3)Gal(a1-4)Gal(b1-4)GlcNAc(b1-3)Gal(b1-4)Glc
# In short: as §1
# [11] = molecular target: GalNAc(b1-3)Gal(a1-6)Gal(b1-4)Glc
# In short: as §1
# [12] = molecular target: GalNAc(b1-3)GalNAc
# In short: as §1
# [13] = molecular target: GalNAc(b1-3)GlcNAc
# In short: as §1
# [14] = molecular target: GalNAc(b1-4)Gal(b1-4)Glc
# In short: as §1
# [15] = molecular target: GalNAc(b1-4)GlcNAc
# In short: as §1
# [16] = molecular target: GalNAc(b1-4)GlcNAc(b1-2)Man
# In short: as §1
# [17] = molecular target: GalNAc(b1-4)GlcNAc(b1-2)Man(a1-3)[GalNAc(b1-4)GlcNAc(b1-2)Man(a1-6)]Man(b1-4)GlcNAc(b1-4)GlcNAc
# In short: as §1
# [18] = molecular target: GalNAc(b1-4)GlcNAc(b1-3)GalNAc(b1-4)GlcNAc
# In short: as §1
# [19] = molecular target: GalNAc(b1-4)GlcNAc6S
# In short: as §1
# [20] = molecular target: GalNAc(b1-6)GalNAc
# In short: as §1
# [21] = molecular target: GalNAc3S(b1-4)GlcNAc
# In short: as §1
# [22] = molecular target: GalNAc3S(b1-4)GlcNAc3S
# In short: as §1
# [23] = molecular target: GalNAc3S(b1-4)[Fuc(a1-3)]GlcNAc
# In short: as §1
# [24] = molecular target: GalNAc4S6S(b1-4)GlcNAc
# In short: as §1
# [25] = molecular target: GalNAc6S(b1-4)GlcNAc
# In short: as §1
# [26] = molecular target: Glc(a1-4)Glc
# In short: as §1
# [27] = molecular target: Glc(a1-4)Glc(a1-4)Glc(a1-4)Glc
# In short: as §1
# [28] = molecular target: Glc(a1-6)Glc(a1-6)Glc
# In short: as §1
# [29] = molecular target: Glc(a1-6)Glc(a1-6)Glc(a1-6)Glc
# In short: as §1
# [30] = molecular target: Glc(b1-4)Glc
# In short: as §1
# [31] = molecular target: Glc(b1-6)Glc
# In short: as §1
# [32] = molecular target: GlcA(b1-3)Gal
# In short: as §1
# [33] = molecular target: GlcA(b1-3)GlcNAc
# In short: as §1
# [34] = molecular target: GlcA(b1-6)Gal
# In short: as §1
# [35] = molecular target: GlcA3S(b1-3)Gal(b1-4)GlcNAc(b1-2)Man
# In short: as §1
# [36] = molecular target: GlcA3S(b1-3)Gal(b1-4)GlcNAc(b1-3)Gal(b1-4)Glc
# In short: as §1
# [37] = molecular target: GlcNAc(a1-3)Gal(b1-4)GlcNAc
# In short: as §1
# [38] = molecular target: GlcNAc(a1-4)Gal(b1-3)GlcNAc
# In short: as §1
# [39] = molecular target: GlcNAc(a1-4)Gal(b1-4)GalNAc
# In short: as §1
# [40] = molecular target: GlcNAc(a1-4)Gal(b1-4)GlcNAc
# In short: as §1
# [41] = molecular target: GlcNAc(a1-4)Gal(b1-4)GlcNAc(b1-3)Gal(b1-4)Glc
# In short: as §1
# [42] = molecular target: GlcNAc(a1-4)Gal(b1-4)GlcNAc(b1-3)Gal(b1-4)GlcNAc
# In short: as §1
# [43] = molecular target: GlcNAc(a1-4)Gal(b1-4)GlcNAc(b1-3)Gal(b1-4)GlcNAc(b1-3)Gal(b1-4)GlcNAc
# In short: as §1
# [44] = molecular target: GlcNAc(a1-4)Gal(b1-4)GlcNAc(b1-3)Gal(b1-4)[Fuc(a1-3)]GlcNAc(b1-3)Gal(b1-4)[Fuc(a1-3)]GlcNAc
# In short: as §1
# [45] = molecular target: GlcNAc(a1-6)Gal(b1-4)GlcNAc
# In short: as §1
binder,measurement,setting,value
B1,glycan array binding signal (z-score),[1],-0.169
same,glycan array binding signal (z-score),[2],-0.18
same,glycan array binding signal (z-score),[3],-0.183
same,glycan array binding signal (z-score),[4],-0.157
same,glycan array binding signal (z-score),[5],-0.173
same,glycan array binding signal (z-score),[6],-0.167
same,glycan array binding signal (z-score),[7],-0.166
same,glycan array binding signal (z-score),[8],-0.185
same,glycan array binding signal (z-score),[9],-0.138
same,glycan array binding signal (z-score),[10],-0.17
same,glycan array binding signal (z-score),[11],-0.159
same,glycan array binding signal (z-score),[12],-0.18
same,glycan array binding signal (z-score),[13],-0.168
same,glycan array binding signal (z-score),[14],-0.15
same,glycan array binding signal (z-score),[15],-0.168
same,glycan array binding signal (z-score),[16],-0.154
same,glycan array binding signal (z-score),[17],0.202
same,glycan array binding signal (z-score),[18],-0.191
same,glycan array binding signal (z-score),[19],-0.196
same,glycan array binding signal (z-score),[20],-0.189
same,glycan array binding signal (z-score),[21],-0.163
same,glycan array binding signal (z-score),[22],-0.179
same,glycan array binding signal (z-score),[23],-0.117
same,glycan array binding signal (z-score),[24],-0.189
same,glycan array binding signal (z-score),[25],-0.177
same,glycan array binding signal (z-score),[26],-0.177
same,glycan array binding signal (z-score),[27],-0.149
same,glycan array binding signal (z-score),[28],-0.177
same,glycan array binding signal (z-score),[29],-0.158
same,glycan array binding signal (z-score),[30],-0.126
same,glycan array binding signal (z-score),[31],-0.171
same,glycan array binding signal (z-score),[32],-0.123
same,glycan array binding signal (z-score),[33],-0.178
same,glycan array binding signal (z-score),[34],-0.167
same,glycan array binding signal (z-score),[35],-0.16
same,glycan array binding signal (z-score),[36],-0.173
same,glycan array binding signal (z-score),[37],-0.176
same,glycan array binding signal (z-score),[38],-0.197
same,glycan array binding signal (z-score),[39],-0.125
same,glycan array binding signal (z-score),[40],-0.181
same,glycan array binding signal (z-score),[41],-0.18
same,glycan array binding signal (z-score),[42],-0.177
same,glycan array binding signal (z-score),[43],-0.145
same,glycan array binding signal (z-score),[44],-0.068
same,glycan array binding signal (z-score),[45],-0.172
